# This is one part of the list. For part of these data: At the low end of the ranking the order means little. For part of these data: The protein was read in a cell extract, so binding may be indirect.
# Columns and labels:
# Details in all cases: 20 mM HEPES pH 7.9, 100 mM NaCl, 1 mM DTT, 0.2 mg/mL BSA, 0.02% Triton X-100, 2% milk, 0.4 mg/mL salmon testes DNA; 1 h; temperature not stated; high values mean tight binding; double strand, one strand shown; sequences stand for … in GCCTAGCAC…GTGCTAGGTCTTGATTCGCTTGACGCTGCTG
# PU.1 (IVT) = PU.1 (IVT) (UniProt P17947); assay: protein-binding microarray (PBM)
# [1] = target: T1, FLI1 (endogenous, THP-1 nuclear extract) (UniProt Q01543); assay: nuclear extract protein-binding microarray (nextPBM)
# T1 sequence: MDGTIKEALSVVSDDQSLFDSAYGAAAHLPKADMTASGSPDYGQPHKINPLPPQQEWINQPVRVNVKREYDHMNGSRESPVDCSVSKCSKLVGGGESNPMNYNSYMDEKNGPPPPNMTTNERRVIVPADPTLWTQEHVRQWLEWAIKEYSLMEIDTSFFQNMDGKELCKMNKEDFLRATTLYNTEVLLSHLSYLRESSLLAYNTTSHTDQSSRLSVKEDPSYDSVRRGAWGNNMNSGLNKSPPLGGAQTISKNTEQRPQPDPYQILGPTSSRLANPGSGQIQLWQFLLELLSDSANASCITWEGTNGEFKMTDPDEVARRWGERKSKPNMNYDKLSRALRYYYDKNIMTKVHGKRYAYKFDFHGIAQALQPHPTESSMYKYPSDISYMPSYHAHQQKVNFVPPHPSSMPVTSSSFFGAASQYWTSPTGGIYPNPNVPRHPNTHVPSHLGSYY
# [2] = tested on: PU.1 (endogenous, THP-1 nuclear extract) + IRF8 (endogenous, THP-1 nuclear extract); assay: as above
# [3] = target: PU.1 (endogenous, THP-1 nuclear extract) (UniProt P17947); assay: as above
Sequence,binding signal (PU.1 (IVT)),binding signal [1],binding signal [2],binding signal [3]
GAAAAGAGGAACTGAAAGCT,7.31 z-score,3.55 z-score,21.9 z-score,–
GCTTTAGGGAACTGAAAGCG,2.82 z-score,0.855 z-score,2.9 z-score,–
AAAAAAAGCAAATGAAAGTA,-0.182 z-score,0.312 z-score,1.49 z-score,–
AGAAAAGGGAAGCGAAACTT,4.18 z-score,3.24 z-score,53.3 z-score,–
TGAAACAGGAAGTGAGACCA,6.68 z-score,5.49 z-score,4.8 z-score,–
CTGGCAAGGAACTGAAACTC,0.424 z-score,0.212 z-score,11.2 z-score,–
AAAAAGAAGAAGTGAAACTT,4.4 z-score,2.15 z-score,51.6 z-score,–
TAAAGGAGGAAGTGAAACCA,5.84 z-score,4.13 z-score,70.7 z-score,–
GTATCAAGGAACTGAAACTC,0.722 z-score,0.414 z-score,10.4 z-score,–
TAAAGGAGGAACTGAAGCCA,3.31 z-score,1.05 z-score,0.544 z-score,–
TCGCAGAGGAAGTGAAACTA,3.29 z-score,3.6 z-score,59.2 z-score,–
AGAAAGAGGAAGAGAAACTT,4.63 z-score,2.28 z-score,11.7 z-score,–
TGAAACAGGAAGTTAAACCA,6.84 z-score,5.15 z-score,1.56 z-score,–
ATAAAGAGGAAGCGAAACTG,4.76 z-score,3.21 z-score,72.7 z-score,–
ATTTTGCAGAACTGAAACTC,1.75 z-score,0.618 z-score,20 z-score,–
TGAAACAAGAAGTGAAACCA,1.48 z-score,0.919 z-score,39.5 z-score,–
TAAAGGAGGAACTGAAAGCA,3.55 z-score,1.32 z-score,6.55 z-score,–
TGGCAGAGAAAGTGAAACTA,0.431 z-score,-0.29 z-score,65.6 z-score,–
CAAAAGCAGAAGTGAAACTG,6.04 z-score,4.29 z-score,70.6 z-score,–
AAGAAAGGGAAGTGAAACTA,5.26 z-score,3.14 z-score,79.1 z-score,–
TGATAGGAGAAGTGAAACCT,1.44 z-score,0.768 z-score,31.6 z-score,–
CTCCCAGGGAAGTGAAAGCA,1.17 z-score,0.794 z-score,4.28 z-score,–
CTGGCAGGGAACTGATACTC,0.814 z-score,-0.127 z-score,1.41 z-score,–
GGAATAGGGAAGTGAAACTG,6.68 z-score,3.85 z-score,67.3 z-score,–
CTTGCAGGGAACTGAAACTC,0.819 z-score,0.637 z-score,13 z-score,–

Sequence,binding signal (PU.1 (IVT)),binding signal [1],binding signal [2],binding signal [3]
AAAAAAAGGAAATAAAAGTA,3.48 z-score,1.74 z-score,0.793 z-score,–
TGGCAGTGGAAGTGAAACTA,1.07 z-score,1.21 z-score,51.2 z-score,–
CAGTGAGGGAAGTGAAACTA,2.37 z-score,2.1 z-score,61.7 z-score,–
CTGCCAGGGAAGTGAAAGCA,0.952 z-score,0.671 z-score,4.44 z-score,–
CTGCCAGGGAAGTGAAAACA,1.23 z-score,1.07 z-score,0.84 z-score,–
CTGCCAGGCAAGTGAAAGCA,-0.274 z-score,-0.675 z-score,2.04 z-score,–
TGGCAGAGTAAGTGAAACTA,-0.089 z-score,-0.224 z-score,27 z-score,–
TGGCAGAGGAAGTGACACTA,3.46 z-score,2.51 z-score,-0.269 z-score,–
TGAAGGAGGAACTGAAACCA,3.35 z-score,1.93 z-score,39.7 z-score,–
TTGGCAGGGAACTGAAACTC,0.435 z-score,0.129 z-score,10.4 z-score,–
CAAAAAAGGAAATGAAAGTA,2.24 z-score,2.41 z-score,15.9 z-score,–
CTGGCAGGGAACTGCAACTC,0.387 z-score,-0.465 z-score,1.4 z-score,–
GATAAGAGGGACTGAAAGCT,-0.0466 z-score,-0.464 z-score,-0.375 z-score,–
TAAAGGAGGAACTCAAACCA,3.38 z-score,1.1 z-score,1.19 z-score,–
AAAAAGAGGAAGGGAAACTA,5.12 z-score,2.73 z-score,17.4 z-score,–
TAAAAGAGGAAGAGAAACTA,5.29 z-score,2.83 z-score,22 z-score,–
CTGCCAGGGAAGTCAAAGCA,0.647 z-score,0.624 z-score,-0.272 z-score,–
AAAAAAATGAAATGAAAGTA,0.217 z-score,-0.0929 z-score,7.64 z-score,–
AAAAATAGGAAATGAAAGTA,3 z-score,2.34 z-score,16.5 z-score,–
GGAAGGCAGAAGTGAAAGCA,0.862 z-score,0.581 z-score,5.56 z-score,–
CTGCCAGGGAACTGAAAGCA,0.492 z-score,-0.512 z-score,0.718 z-score,–
TTTTTAGAGAAGTGAAACTA,3.24 z-score,2.93 z-score,60.3 z-score,–
TGAAACAGGAAGTGAAAGCA,6.78 z-score,5.51 z-score,37.5 z-score,–
TAGCAGAGGAAGTGAAACTA,3.74 z-score,3.81 z-score,60.4 z-score,–
TGGGAGAGGAAGTGAAACTA,3.94 z-score,4.05 z-score,70.2 z-score,–

Sequence,binding signal (PU.1 (IVT)),binding signal [1],binding signal [2],binding signal [3]
TGGCAGAGGAAGGGAAACTA,1.45 z-score,1.34 z-score,2.28 z-score,–
CAGAAGGGGAAGCGAAACTG,3.03 z-score,2.54 z-score,58.3 z-score,–
TGAAACAGGAATTGAAACCA,1.76 z-score,1.71 z-score,23.8 z-score,–
GATAAGAGAAAGTCCTCTGT,-0.236 z-score,-0.591 z-score,–,-0.198 z-score
CAGGGAAGGAAGTGAAACTA,2.23 z-score,2.6 z-score,61.4 z-score,–
TCCTGGGGGAAGTGAAACTG,2.71 z-score,2.8 z-score,40.4 z-score,–
CTGCCAGGGAAATGAAAGCA,-0.0473 z-score,0.383 z-score,2 z-score,–
TGAAACCGGAAGTGAAACCA,5.71 z-score,8.03 z-score,71.9 z-score,–
GAAATAGGGAAGTGAGACAG,6.59 z-score,2.48 z-score,–,6.88 z-score
AAAAAAACGAAATGAAAGTA,-0.0717 z-score,0.0985 z-score,10.1 z-score,–
TGAAACAGGAAGTGAAAACA,6.7 z-score,5.46 z-score,8.93 z-score,–
TAAAGGAGGAACTGAGACCA,3.13 z-score,1.02 z-score,0.698 z-score,–
AAAAGAGGGAAGTGCCGCAC,4.97 z-score,1.8 z-score,–,5.82 z-score
AGAAAGAGGAAGTGATGTTA,8.46 z-score,4.36 z-score,–,7.27 z-score
AAAAAAAGGAAATCAAAGTA,2.26 z-score,1.63 z-score,0.0615 z-score,–
AAAAAAAGGAAATGAAACTT,3.41 z-score,3 z-score,28.7 z-score,–
GAGAAGGGGAAATGAAACTC,2.8 z-score,2.4 z-score,22.1 z-score,–
AGATGGAGGAAGTGGAAGAG,3.87 z-score,2.58 z-score,–,3.65 z-score
AAAATGAGGAAGTACCCTCT,8.28 z-score,3.86 z-score,–,7.35 z-score
AGAAGGAGGAAGTTAGGACT,6.49 z-score,2.73 z-score,–,6.43 z-score
ATTTAAAGGAAGTGAAAATT,4.13 z-score,2.56 z-score,–,3.3 z-score
AGGAAAAGGAAGTGAGTCAC,4.13 z-score,3.01 z-score,–,3.91 z-score
ACAAAGAGGAAGTGCAGATC,6.7 z-score,3.62 z-score,–,6.92 z-score
TCAAGGAGGAAGTGAGAGAT,4.31 z-score,2.65 z-score,–,5.23 z-score
GTATCAAGGAACTGAAACTT,1.14 z-score,0.425 z-score,12.2 z-score,–

Sequence,binding signal (PU.1 (IVT)),binding signal [1],binding signal [2],binding signal [3]
AAAAAAAGGAAGTGAAAGTA,6.78 z-score,3.78 z-score,51.4 z-score,–
GAAAAGAGGAAATCTTTGAA,4.57 z-score,2.3 z-score,–,3.82 z-score
TGAGAGCAGAAGTGAAACCT,1.66 z-score,0.694 z-score,28.5 z-score,–
CAAATGAGGAACTGATGCGG,5.55 z-score,1.58 z-score,–,6.38 z-score
TCCAGGAGGAAGTGAGGAAT,3.94 z-score,2.72 z-score,–,4.19 z-score
GAAATGAGGAAATGAAACCA,5.18 z-score,3.26 z-score,56.8 z-score,–
GATAAGAGGAACTTAAAGCT,5.22 z-score,1.28 z-score,0.0979 z-score,–
AAAAGAAGGAAGTGAAACTC,5.43 z-score,3.52 z-score,68.3 z-score,–
GAACACAGGAAGTCCCATAG,1.71 z-score,4.06 z-score,–,2.08 z-score
TTCAGGGGGAAGTGAAAGTT,3.64 z-score,2.3 z-score,16.8 z-score,–
GATAAGAGGAACTGAAATCT,4.58 z-score,1.43 z-score,0.149 z-score,–
TAAAAGAGGAACAGAAACTA,4.97 z-score,2.58 z-score,44.9 z-score,–
AGGCAGAGGAAGTGAAACTA,3.35 z-score,3.52 z-score,57.6 z-score,–
TGTTTGGGGAAGTGAGGCAG,4.06 z-score,1.82 z-score,–,4.87 z-score
GAAATAAGGAACTGAAACTG,4.78 z-score,2.6 z-score,45 z-score,–
GGAATGAGGAACTGGCTGGC,5.27 z-score,1.73 z-score,–,5.96 z-score
AAAAAAAGGAAGTGATGTAC,7.37 z-score,3.06 z-score,–,6.52 z-score
GATAAGAGCAACTGAAAGCT,-0.681 z-score,-0.398 z-score,-0.773 z-score,–
AAATAGAGGAAGTGGAATGG,7.2 z-score,3.53 z-score,–,7.01 z-score
GATAAGAGGAAGTGCTCTGT,6.52 z-score,3.33 z-score,–,6.71 z-score
CCAAGGAGGAAGTGAGGCCT,4.24 z-score,2.93 z-score,–,5.39 z-score
AGACAGGGGAAGTGGAGGCC,3.21 z-score,1.63 z-score,–,2.92 z-score
TCAGTGGGGAAGTGACATGG,3.41 z-score,1.32 z-score,–,3.09 z-score
CTGGCAGGGAACTACTGTGC,1.25 z-score,-0.133 z-score,–,0.998 z-score

# Source: paper PMC6451091
